# Laboratory results from PubChem BioAssay AID504332 (National Center for Advancing Translational Sciences (NCATS), 2011).
# Hit rate of the full screen: of about 350,000 compounds, about 31,000 (8.9%) were called active. Inconclusive means that the source gave no clear call. Such entries were picked first, then a sample of the others. The call rests on the fitted dose curve; in most records, active means well fitted inhibition curve with a large enough effect; inconclusive means small, poorly fitted or top-dose-only effect; inactive means no such curve, though single readings can be large or run the other way. Where the call is inconclusive, the potency comes from a doubtful curve fit.
# Target: Histone-lysine N-methyltransferase EHMT2 (Homo sapiens) (UniProt Q96KQ7)
# Test: qHTS Assay for Inhibitors of Histone Lysine Methyltransferase G9a; further: nearly all actives have a fitted effect of over 75% in size
# Conditions: G9a H3K9 monomethylation, AlphaScreen, 2 h; activity, negative = inhibition: at 59 µM (top of the series) unless noted
# Method in brief: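 AlphaScreen detection with an anti-monomethyl H3K9 antibody quantified product after a 2 h room-temperature reaction containing 500 nM biotinylated H3K9 peptide, 20 µM SAM and 20 nM enzyme, which had been preincubated 15 min with compound.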
# On the % scale 0 is the no-effect control and ±100 the full control effect; potency means the concentration at half of the fitted maximal effect; tags describe the fitted curve by direction and shape.
# Sequence of UniProt Q96KQ7 (Q96KQ7 whole entry, looked up): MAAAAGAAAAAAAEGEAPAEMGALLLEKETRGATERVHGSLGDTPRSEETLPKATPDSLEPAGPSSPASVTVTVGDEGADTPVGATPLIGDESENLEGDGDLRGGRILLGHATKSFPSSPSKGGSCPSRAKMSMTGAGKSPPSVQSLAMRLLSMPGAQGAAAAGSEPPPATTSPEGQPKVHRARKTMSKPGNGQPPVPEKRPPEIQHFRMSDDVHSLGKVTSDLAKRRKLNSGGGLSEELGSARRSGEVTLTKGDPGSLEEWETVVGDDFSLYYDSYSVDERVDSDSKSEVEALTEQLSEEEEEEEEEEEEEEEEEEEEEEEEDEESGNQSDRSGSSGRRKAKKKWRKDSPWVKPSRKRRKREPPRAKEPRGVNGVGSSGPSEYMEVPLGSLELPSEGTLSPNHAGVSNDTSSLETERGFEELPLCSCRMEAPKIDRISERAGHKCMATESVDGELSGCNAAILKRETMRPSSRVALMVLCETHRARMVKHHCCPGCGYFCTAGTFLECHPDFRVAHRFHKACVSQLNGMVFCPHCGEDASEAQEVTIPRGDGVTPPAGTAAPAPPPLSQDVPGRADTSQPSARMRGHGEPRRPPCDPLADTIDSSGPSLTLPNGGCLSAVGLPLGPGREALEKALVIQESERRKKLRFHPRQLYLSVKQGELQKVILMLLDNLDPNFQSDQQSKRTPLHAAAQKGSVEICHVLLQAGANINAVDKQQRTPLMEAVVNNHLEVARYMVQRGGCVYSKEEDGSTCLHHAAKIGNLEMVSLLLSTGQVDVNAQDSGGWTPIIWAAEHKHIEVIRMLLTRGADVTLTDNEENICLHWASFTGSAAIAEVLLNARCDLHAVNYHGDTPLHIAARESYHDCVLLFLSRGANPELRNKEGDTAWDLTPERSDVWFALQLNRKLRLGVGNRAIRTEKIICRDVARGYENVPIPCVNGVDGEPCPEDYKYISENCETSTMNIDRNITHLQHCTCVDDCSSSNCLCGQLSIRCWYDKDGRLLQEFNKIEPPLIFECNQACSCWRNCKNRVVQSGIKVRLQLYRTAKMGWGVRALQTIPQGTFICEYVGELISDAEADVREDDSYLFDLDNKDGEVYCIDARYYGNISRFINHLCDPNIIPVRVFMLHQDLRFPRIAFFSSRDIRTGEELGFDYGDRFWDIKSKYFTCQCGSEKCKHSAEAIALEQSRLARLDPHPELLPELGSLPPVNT
SMILES,Potency,"activity, negative = inhibition"
Cc1ccc(NCc2nnc(SCC(=O)c3ccccc3)o2)c(C)c1,"inconclusive: 39.8 µM [inhibitor, partial curve, poor fit]",–
CCOC(=O)Cn1c(-c2cccnc2Cl)nc2ccccc21,–,inconclusive: -54% [inhibitor] [at 12.7 µM]
Cn1c(CCNC(=O)OC(C)(C)C)n[nH]c1=S,"inconclusive: 20 µM [inhibitor, single point]",–
CCOC(=O)CCNC(=O)CNC(=O)OCc1ccccc1,"inconclusive: 28.2 µM [inhibitor, partial curve, poor fit]",–
O=[N+]([O-])c1ccc(/C=N/NS(=O)(=O)c2ccc(Cl)cc2)o1,active: 3.55 µM,–
COC(=O)NCCc1cc(OC)c(OC)cc1S(=O)(=O)N1CC(=O)Nc2ccccc21,–,inactive: 27.4% [at 102 µM]
CCc1ccc(NS(=O)(=O)c2ccc3[nH]cc(C(=O)N(C)Cc4ccco4)c(=O)c3c2)cc1,active: 89.1 µM,–
CC(C)C(=O)Nc1ccc(C(=O)Nc2nnc(C(C)C)s2)cc1,–,inactive: -1.84% [at 102 µM]
CCc1ccccc1NC(=O)Cn1cc2c(n1)CCC(C)C2 (stereo not drawn),–,inactive: 0.893%
O=S(=O)(Nc1nc2ccccc2nc1N1CCN(c2ccccn2)CC1)c1ccc(Cl)cc1,–,inconclusive: -70.8% [inhibitor]
O=c1cc(CN2CCOCC2)c2ccc(O)c(O)c2o1,active: 7.94 µM,–
Cc1ccc(C(NC(=O)N2CCOCC2)C(Cl)Cl)cc1F (stereo not drawn),active: 44.7 µM,–
CC(=O)Nc1ccc(S(=O)(=O)Nc2cc(S(=O)(=O)N3CCCCC3)ccc2O)cc1,active: 28.2 µM,–
Clc1ccc(-c2csc(N/N=C\c3cccnc3)n2)cc1,active: 10 µM,–
CCOC1=NN(c2ccccc2)C(=O)/C1=C\N(C)C,"inconclusive: 70.8 µM [inhibitor, partial curve]",–
COc1cc2c(cc1OC)-c1cc(Nc3ccccc3Br)nc(=O)n1CC2,"inconclusive: 89.1 µM [inhibitor, single point]",–
COC(=O)c1ccc(CSc2ccc3nnc(-c4ccccn4)n3n2)o1,active: 44.7 µM,–
CC(C)(C)NC(=O)c1ccc2c(c1)C1C3CCC(C3)C1C(c1ccccc1)N2 (stereo not drawn),–,inactive: -17.8%
C=CCSc1nnc(NC(=O)CSc2nnc(C)s2)s1,–,inactive: 13.2%
Cc1ccc(CCNC(=O)C2CC(c3ccccc3C(F)(F)F)=NO2)cc1 (stereo not drawn),–,inactive: -1.05%
COCCn1c(SCC(=O)c2ccccc2)nc2ccccc2c1=O,–,inactive: -6.57% [at 102 µM]
Cc1ccc(-n2nc(C(=O)N3CCN(c4cccc(C(F)(F)F)c4)CC3)c3c4ccccc4n(C)c3c2=O)cc1,–,inactive: -13.3%
Cc1cc(NC(=O)CSc2nnc(NC(=O)C3CC(=O)N(c4ccccc4C)C3)s2)no1 (stereo not drawn),"inconclusive: 39.8 µM [inhibitor, single point]",–
Cn1c(NCc2c[nH]c3ccccc23)nc2ccccc21,"inconclusive: 50.1 µM [inhibitor, partial curve]",–
CCOC(=O)/C=C/C(=O)Nc1ccc(S(=O)(=O)Nc2cc(C)on2)cc1,active: 50.1 µM,–

SMILES,Potency,"activity, negative = inhibition"
O=C(O)Cc1cc(I)c(Oc2ccc(O)c(I)c2)c(I)c1,"inconclusive: 89.1 µM [inhibitor, single point]",–
O=C(/C=C/c1ccc([N+](=O)[O-])cc1)c1cccnc1,"inconclusive: 10 µM [inhibitor, partial curve, poor fit]",–
COc1ccc(OC)c(C2C(C(=O)Nc3ccc(F)cc3)=C(C)Nc3nc(CCCO)nn32)c1 (stereo not drawn),"inconclusive: 44.7 µM [inhibitor, partial curve, poor fit]",–
COc1ccc(Cl)cc1NC(=O)C(C)N1CCN(C/C=C/c2ccccc2)CC1 (stereo not drawn),"inconclusive: 6.31 µM [inhibitor, single point]",–
Cc1sc2nc(CSCC(=O)N(C)CC(=O)Nc3ccc(F)cc3)[nH]c(=O)c2c1C,active: 50.1 µM,–
O=C(NCc1ccco1)C(c1ccccc1)N(C(=O)Cc1cccs1)c1cccnc1 (stereo not drawn),"inconclusive: 25.1 µM [inhibitor, full curve]",–
CC(=NCc1ccco1)c1c(C)[nH]n(-c2nc3ccccc3s2)c1=O,"inconclusive: 89.1 µM [inhibitor, single point]",–
O=C(N[C@@H](Cc1ccccc1)C(=O)N[C@@H](Cc1ccccc1)C(=O)O)OCc1ccccc1,–,inactive: 23.4% [at 2.33 µM]
O=C(COC(=O)Cn1[nH]c(=O)c2ccccc2c1=O)NNC(=O)c1ccc(Br)cc1,"inconclusive: 31.6 µM [inhibitor, single point]",–
CCn1c(SCc2cccc(F)c2)nc2c(c1=O)SCC2,"inconclusive: 1.78 µM [inhibitor, partial curve, poor fit]",–
O=C(O)/C=C\C(=O)Nc1ccc(N2CCN(c3ccc(Cl)c(Cl)c3)CC2)cc1,active: 31.6 µM,–
S=c1[nH]nc(-c2cccnc2)n1/N=C/c1ccc(Br)s1,"inconclusive: 1.26 µM [inhibitor, full curve, poor fit]",–
COCC1CCCCN1C(=O)c1ccc(OC2CCN(Cc3ccccn3)CC2)cc1 (stereo not drawn),–,inactive: 2.63% [at 102 µM]
Cc1ccc(/C=C2\C(=O)Nc3ccccc32)o1,active: 8.91 µM,–
Cc1ccc(CNc2nccn(-c3cc(C)cc(C)c3)c2=O)cc1,"inconclusive: 28.2 µM [inhibitor, single point]",–
CC(=O)N[C@@H](C)c1nc2ccccc2n1CCCN1CCN(c2nc(-c3ccc(C)cc3)cs2)CC1,active: 44.7 µM,–
O=C1CCCc2nc(N3CCN(Cc4ccccc4)CC3)ncc21,"inconclusive: 89.1 µM [inhibitor, single point]",–
O=C(/C=C/c1cccc([N+](=O)[O-])c1)c1cccs1,–,inactive: -1.46%
CCCCCCNc1nc(-c2ccc(OC)cc2)c(CCC(=O)O)s1,active: 44.7 µM,–
Cc1cc(/C=N/n2cnnc2)c(C)n1-c1cc(Cl)ccc1Cl,"inconclusive: 79.4 µM [inhibitor, single point]",–
CCN1CCN(c2cc(C)c3cc(NC(=O)CCC(=O)Nc4ccc(OC)cc4OC)ccc3n2)CC1,"inconclusive: 31.6 µM [inhibitor, single point]",–
COc1ccc(-c2ccc(CCC(=O)O)n2-c2ccc(Cl)cc2C)cc1,"inconclusive: 31.6 µM [inhibitor, single point]",–
Cc1cc(C)n(CCc2nc3c4ccccc4nc(N4CCN(c5ccc(F)cc5)CC4)n3n2)n1,–,inactive: -0.848%
O=C(C1CCC(CNS(=O)(=O)c2cccc3nsnc23)CC1)N1CC=C(c2ccccc2)CC1 (stereo not drawn),active: 89.1 µM,–
Nn1c(SCC(=O)Nc2ccc(F)cc2)nnc1-c1ccccn1,"inconclusive: 2.51 µM [inhibitor, full curve, poor fit]",–

SMILES,Potency,"activity, negative = inhibition"
Cc1nc2nc[nH]n2c(=O)c1NC(=O)c1c(-c2ccccc2Cl)noc1C,"inconclusive: 0.891 µM [inhibitor, full curve, poor fit]",–
O=C(COC(=O)C1(c2ccccc2F)CCCC1)N1CCNC1=O,–,inactive: -25.3% [at 102 µM]
Cn1c(=O)c(=O)n(C)c2cc([N+](=O)[O-])c([N+](=O)[O-])cc21,"inconclusive: 39.8 µM [inhibitor, partial curve]",–
CCc1ccc(-n2nc(CO)c(C(=O)NCc3ccccc3OC)n2)cc1,–,inactive: 9.97%
CCC(C)N(C(=O)COc1ccc(Br)cc1C=O)C1CCS(=O)(=O)C1 (stereo not drawn),"inconclusive: 79.4 µM [inhibitor, partial curve, poor fit]",–
NS(=O)(=O)c1ccc(NC(=S)N2CCC(O)CC2)cc1,active: 39.8 µM,–
O=C(CN(C(=O)CNS(=O)(=O)c1ccccc1)C1CCCC1)NCc1ccco1,"inconclusive: 39.8 µM [inhibitor, single point]",–
CCNC(=S)NC1CC2CCC(C1)N2Cc1ccccc1 (stereo not drawn),–,inactive: -0.582% [at 102 µM]
O=C(O)c1ccc(COc2ccccc2/C=C2\NC(=O)N(Cc3ccc(F)cc3)C2=O)cc1,"inconclusive: 39.8 µM [inhibitor, partial curve]",–
Cc1ccc(-n2nc(C)c(Sc3ccccc3[N+](=O)[O-])c2N)cc1,active: 10 µM,–
Cc1cc2cc(C)c3nnc(SCc4ccccn4)n3c2cc1C,"inconclusive: 25.1 µM [inhibitor, single point]",–
CCCC(C)NC(=O)CN(Cc1ccco1)S(=O)(=O)c1ccccc1 (stereo not drawn),"inconclusive: 39.8 µM [inhibitor, single point]",–
COc1cc(C)c(S(=O)(=O)NCc2ccc3c(c2)OCO3)cc1C,"inconclusive: 89.1 µM [inhibitor, single point]",–
Cn1c(Oc2ccc(Cl)cc2)nc2c1c(=O)n(Cc1ccc(F)cc1)c(=O)n2C,–,inactive: 5.41%
CCN(CC)CCCNC(=O)c1[nH]c2ccccc2c1Sc1ccc(Cl)cc1,"inconclusive: 89.1 µM [inhibitor, single point]",–
CCCN(Cc1nnc(-c2cccs2)o1)C(=O)c1cccc(S(=O)(=O)N2CCOCC2)c1,"inconclusive: 25.1 µM [inhibitor, single point]",–
Nc1n[nH]c(S(=O)(=O)CCCc2ccccc2)n1,active: 50.1 µM,–
CCOC(=O)c1c(C)[nH]c(/C(C)=N/O)c1C,–,inactive: 12.8% [at 12.7 µM]
CSc1nnc(SCC(=O)NC(=O)c2ccccc2)s1,active: 44.7 µM,–
CCOc1ccc(S(=O)(=O)N(C)c2ccc(OCC(=O)NCCc3ccc(OC)cc3)cc2)cc1,–,inactive: -24.4% [at 102 µM]
COc1cc(Cl)c(C)cc1NC(=O)c1cnc(N2CCOCC2)c2ccccc12,–,inactive: 27.5%
CCCc1nn(C)c2c(=O)[nH]c(-c3ccccc3OCC)nc12,"inconclusive: 39.8 µM [inhibitor, single point]",–
C(=N\N1CCOCC1)/c1nc(-c2ccccc2)n2ccccc12,active: 17.8 µM,–
